Data on 42 sequences can be found in article PMC7819943, “Rice protein-binding microarrays: a tool to detect cis-acting elements near promoter regions in rice”.

The list shows a part of the results.

The target in the test is T1, OsWOX13 (Oryza sativa, UniProt Q5QMM3 1-267).
T1 sequence: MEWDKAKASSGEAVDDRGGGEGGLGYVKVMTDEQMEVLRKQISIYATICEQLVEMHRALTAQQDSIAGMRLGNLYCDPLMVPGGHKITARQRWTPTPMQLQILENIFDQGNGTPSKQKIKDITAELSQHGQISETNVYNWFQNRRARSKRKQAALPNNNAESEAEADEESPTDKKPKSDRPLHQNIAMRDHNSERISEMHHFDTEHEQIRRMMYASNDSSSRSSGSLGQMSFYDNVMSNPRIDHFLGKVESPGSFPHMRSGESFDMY
The test is described as follows: protein-binding microarray (RPBM); PBS, 2% BSA, 51.3 ng/ul salmon testes DNA, 50 uM zinc acetate, 200 nM TF, 25 C, 1 h; high values mean tight binding. The following applies: protein: recombinant; tags: N-terminal polyhistidine and DsRed monomer fusion (pET32a); label: CyDye5-dUTP incorporated in the synthesized complementary strand; 3' TTTTT single-stranded linker to array surface; dsDNA, one strand shown. A digest of the protocol: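 A custom Agilent array was converted to double-stranded form by primer extension with Cy5-dUTP and blocked with 2% BSA. Protein at 200 nM in PBS with 2% BSA, salmon testes DNA and 50 µM zinc acetate was applied for 1 h at 25 °C, followed by washing. The proteins were polyhistidine–DsRed N-terminal fusions of transcription factors, expressed in E. coli BL21-CodonPlus and Ni–NTA-purified. The binding signal is per-feature fluorescence intensity (arbitrary units) from an Axon 4000B scanner.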
As for “GCAAATTGAGAAGAATTAACGCCAAAAGGAGAACTTGATTCGGAGTCACCTAGTGCAG”, the binding signal was 17200 fluorescence intensity (a.u.).

Take “TGAATTAGATTGGAGCTATTGAGGGAGTCAAAGTGGGTTTCGGAGTCACCTAGTGCAG”: the binding signal was 22500 fluorescence intensity (a.u.). On to “TTTTGATTGACAGCGGAAATTACTCGATATTGTTCTTCAACGGAGTCACCTAGTGCAG”, for which the binding signal was 64300 fluorescence intensity (a.u.). On to “AGCTAATTAATCCAGCTTACTTAATTAACCTAATTAATCACGGAGTCACCTAGTGCAG”, for which the binding signal is 26300 fluorescence intensity (a.u.). The value for “ATATCAAATAATTAGAATTGATGATGTTTCGAATCCAGGTCGGAGTCACCTAGTGCAG” was 24800 fluorescence intensity (a.u.). In the case of “GATAGATTTCCTTAATGTATTCGGAAACTATTCGTACACGCGGAGTCACCTAGTGCAG”, the binding signal is 4880 fluorescence intensity (a.u.). The same measure for “TCTTATTCTAATTGCCATGACATGATGCCACCAATGTCCACGGAGTCACCTAGTGCAG”: 16200 fluorescence intensity (a.u.); for “CCACCACCAATCATGCCCATTGCAGGCTTCCACCGCCCGCCGGAGTCACCTAGTGCAG”: 4420 fluorescence intensity (a.u.). As for “GATAATTTGGTCATTGCTAAAATATTTGGGAAAAGTTAGCCGGAGTCACCTAGTGCAG”, the binding signal is 23700 fluorescence intensity (a.u.). On to “GTTATAGCGCATCTATCAATCGTACTAAATTTCATTGTCCCGGAGTCACCTAGTGCAG”, for which the binding signal was 3250 fluorescence intensity (a.u.). The same measure for “CTCCATAATTATTAGAAGGACGTCCTCCAGCAACTCCGCCCGGAGTCACCTAGTGCAG”: 16900 fluorescence intensity (a.u.). Take “AAATGATTTCTGGCTAATTTGTTTCATTTGTAGCTGTTGACGGAGTCACCTAGTGCAG”: the binding signal is 26000 fluorescence intensity (a.u.).

For “TCACAGACAAATTAAAGCATACAGCAATTGATTCAGAGTACGGAGTCACCTAGTGCAG”, the binding signal was 4560 fluorescence intensity (a.u.). Turning to “TGGATTAATTAGGCTCAATAGATTCGTCTCACGAATTAGTCGGAGTCACCTAGTGCAG”, the binding signal was 36500 fluorescence intensity (a.u.).

Regarding “TTACTAATTTTACTATTGTGGATAAATTTTAGACGTCCAACGGAGTCACCTAGTGCAG”, the binding signal is 7970 fluorescence intensity (a.u.). For the sequence “ATTGATCAATCGATCAATCCCTCCTTCCCCATCCAATCCTCGGAGTCACCTAGTGCAG”, the binding signal is 4160 fluorescence intensity (a.u.). In the case of “AAAGATTTAATTATTACGAACACAACGGTGTAATTAGATCCGGAGTCACCTAGTGCAG”, the binding signal is 12300 fluorescence intensity (a.u.). The value for “ATGATTATCAGAAAACCTAGACAACAGTATCCCGTTGGAACGGAGTCACCTAGTGCAG” was 7150 fluorescence intensity (a.u.); that for “ACTCACAGAACATAATTAGACATACATGTTAATTTGTTTCCGGAGTCACCTAGTGCAG” was 7860 fluorescence intensity (a.u.); that for “ATCAATCCAATAATATTAATTTTAGCAGATAAAGTTTAACCGGAGTCACCTAGTGCAG” was 4450 fluorescence intensity (a.u.). Turning to “ATCACAAAATTAGATAATCTATCGTATGTCCCGCCCCTAACGGAGTCACCTAGTGCAG”, the binding signal was 6800 fluorescence intensity (a.u.). On to “GTCAGTGACAATAATCCATCAAATTAATGTTATAGCTGTTCGGAGTCACCTAGTGCAG”, for which the binding signal was 3400 fluorescence intensity (a.u.). For the sequence “ACATTGACTTGATGTATAATTTATTAATTTCATGCAGTTCCGGAGTCACCTAGTGCAG”, the binding signal was 16800 fluorescence intensity (a.u.).

“ATAAATTACACTTTAAGTACTTTAAGTGATAAAACAACTCCGGAGTCACCTAGTGCAG”: the binding signal was 5130 fluorescence intensity (a.u.). Turning to “CTCGTGATTTGCCGGCTGCGTGGACGACTTCGCCTCTCTTCGGAGTCACCTAGTGCAG”, the binding signal was 28800 fluorescence intensity (a.u.). The same measure for “GAAAAGCTAATTGGTCTCTGGTATTGATTCTGTGTGCCGACGGAGTCACCTAGTGCAG”: 20900 fluorescence intensity (a.u.); for “GTTAATGGACTTTTAGTATATAATAGAAGATAGGTAAAGACGGAGTCACCTAGTGCAG”: 8400 fluorescence intensity (a.u.); for “CTTATTTCTTAACCTGCAGTTAATTGCCTACCAGTAAGCACGGAGTCACCTAGTGCAG”: 16000 fluorescence intensity (a.u.). With “GAGATTGATTGCTCTCCGCCAATAATCTTAGCTAGTTTTGCGGAGTCACCTAGTGCAG”, the binding signal is 41800 fluorescence intensity (a.u.). As for “ACCGGTTTTGACAGATTGGGGACCGGTTGTATCTGGTTTTCGGAGTCACCTAGTGCAG”, the binding signal was 18600 fluorescence intensity (a.u.). As to “GCCAGGATTGATCACACGGAGTGACTTTTCTCACTAGAGTCGGAGTCACCTAGTGCAG”, the binding signal was 23200 fluorescence intensity (a.u.). The same measure for “ACTAATTGAGGCGACACCCCAATCATGGGCAAACCGCCACCGGAGTCACCTAGTGCAG”: 41300 fluorescence intensity (a.u.). Consider “TGCTATAGTTATAACCAATAATTTATTCACTACATTTTGTCGGAGTCACCTAGTGCAG”, for which the binding signal was 5140 fluorescence intensity (a.u.). With “AGATCTAATCATGAAAATGTGTTGTGGTACACCCCATATTCGGAGTCACCTAGTGCAG”, the binding signal is 3190 fluorescence intensity (a.u.). Consider “TTCACAAATTGAACATAGAGTACCGTCTCACACGCTGCTCCGGAGTCACCTAGTGCAG”, for which the binding signal is 22100 fluorescence intensity (a.u.).

Consider “TTTGATATAATCAAATTCCACAGCGAACCGATATGTAACGCGGAGTCACCTAGTGCAG”, for which the binding signal is 7380 fluorescence intensity (a.u.). “ACCCAATCATCTCCTTGTAAAGTTCATTATCCATAGCAATCGGAGTCACCTAGTGCAG”: the binding signal is 15400 fluorescence intensity (a.u.).

On to “TATATATATATATATATATATATATTAGTGGTGCTCCCAACGGAGTCACCTAGTGCAG”, for which the binding signal was 8650 fluorescence intensity (a.u.). In the case of “ATGATTGTGATTTATATTTTGAAATAAAGAGAGTAGTAATCGGAGTCACCTAGTGCAG”, the binding signal was 50500 fluorescence intensity (a.u.). Consider “GTTACATCACTATTAAATTAATTTATTTTAGGGACGAAAGCGGAGTCACCTAGTGCAG”, for which the binding signal was 4570 fluorescence intensity (a.u.). On to “CATCACTTCTAATCTAATAATTAATTTGACACCTCCTGTTCGGAGTCACCTAGTGCAG”, for which the binding signal was 14000 fluorescence intensity (a.u.). On to “TCTTTAATTTAAATTTCCCGATGTTTCGCCCAGGTTTAAACGGAGTCACCTAGTGCAG”, for which the binding signal is 27600 fluorescence intensity (a.u.).
